Source: PMC4336329 (PLoS ONE, 2015)
The whole screen tested about 310,000 compounds, of which about 14,000 (4.5%) showed an effect of 50% or more. Effects have a minus sign here. The list shows a part of the results.

Target: human ether-à-go-go-related gene (hERG) potassium channel (human, UniProt Q12809)
Assay: primary screen, population patch clamp on CHO cells stably expressing hERG
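Further: peak tail current of the secondary pulse compared with the same well before compound.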

human ether-à-go-go-related gene (hERG) potassium channel, sequence (Q12809 whole entry, looked up): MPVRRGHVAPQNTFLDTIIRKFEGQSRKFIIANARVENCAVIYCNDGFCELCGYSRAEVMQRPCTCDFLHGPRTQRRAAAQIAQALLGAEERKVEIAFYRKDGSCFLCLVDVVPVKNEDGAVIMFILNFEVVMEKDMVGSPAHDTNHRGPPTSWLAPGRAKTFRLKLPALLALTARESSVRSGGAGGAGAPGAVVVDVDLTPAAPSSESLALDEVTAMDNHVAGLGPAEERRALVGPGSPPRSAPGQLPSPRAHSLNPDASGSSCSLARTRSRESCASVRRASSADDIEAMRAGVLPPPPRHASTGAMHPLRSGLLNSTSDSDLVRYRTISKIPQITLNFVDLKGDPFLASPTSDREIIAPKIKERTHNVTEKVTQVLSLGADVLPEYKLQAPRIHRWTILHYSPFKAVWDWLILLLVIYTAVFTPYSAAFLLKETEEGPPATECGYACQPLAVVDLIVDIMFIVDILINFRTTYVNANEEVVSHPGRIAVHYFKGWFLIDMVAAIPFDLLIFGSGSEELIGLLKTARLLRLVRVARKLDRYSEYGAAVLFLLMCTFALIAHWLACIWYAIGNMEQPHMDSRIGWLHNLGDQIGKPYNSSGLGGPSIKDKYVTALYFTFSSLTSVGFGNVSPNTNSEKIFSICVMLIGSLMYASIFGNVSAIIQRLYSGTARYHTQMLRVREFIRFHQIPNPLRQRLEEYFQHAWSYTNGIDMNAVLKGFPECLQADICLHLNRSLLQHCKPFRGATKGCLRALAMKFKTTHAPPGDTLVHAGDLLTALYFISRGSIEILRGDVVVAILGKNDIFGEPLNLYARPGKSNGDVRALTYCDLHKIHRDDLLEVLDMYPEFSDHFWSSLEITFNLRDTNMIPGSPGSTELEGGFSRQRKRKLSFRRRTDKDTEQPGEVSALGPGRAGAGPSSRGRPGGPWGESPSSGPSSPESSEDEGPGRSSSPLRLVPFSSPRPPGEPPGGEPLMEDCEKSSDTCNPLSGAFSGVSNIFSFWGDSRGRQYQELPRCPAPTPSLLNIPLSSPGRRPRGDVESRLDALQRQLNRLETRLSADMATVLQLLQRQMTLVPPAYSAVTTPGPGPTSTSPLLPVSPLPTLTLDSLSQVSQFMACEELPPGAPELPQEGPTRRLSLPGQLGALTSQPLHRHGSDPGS

| SMILES | hERG current change (%, negative = inhibition) at 10uM |
| --- | --- |
| CS(=O)(=O)N1CCCC(C(=O)NCc2ccco2)C1 (centres unmarked) | 8.57% |
| COc1cc(C(=O)OCC(=O)c2cc(C)n(C)c2C)cc(NC(=O)c2ccco2)c1OC | 7.53% |
| O=C(Nc1ccc2c(c1)OCCO2)c1c(F)c(F)c(F)c(F)c1F | -2.03% |
| CO/N=C/NC(=O)c1c(OC)ccnc1Oc1cccc(C(F)(F)F)c1 | -14.1% |
| COc1cccc(/C=N/Nc2ncnc3scc(-c4ccccc4)c23)c1O | -4.18% |
| COc1ccc(N2Cc3ccc(OC)c(OC)c3C2=O)cc1 | 15.1% |
| O=C(NCc1nnc2n1CCCCC2)c1ccc(Cl)cc1Cl | 0.142% |
| COc1ccc(-c2csc(NC(=O)COC(=O)Cc3ccc(Cl)cc3Cl)n2)cc1 | -5.5% |
| COc1ccc2[nH]c(=O)c(NC(N)=S)nc2c1 | 7.2% |
| Cc1cc(C)c2[nH]c(O)c(N=NC3=NC(=O)CS3)c2c1 | -19.6% |
| COCCN(C(=O)COC(=O)c1cccnc1SC)c1c(N)n(Cc2ccccc2)c(=O)[nH]c1=O | -2% |
| O=C(O)CCCCCNC(=O)OCC1c2ccccc2-c2ccccc21 | 7.34% |
| CCN1/C(=C/c2ccc3cc(C)ccc3[n+]2CC)Sc2ccc3sccc3c21.[I-] | -44.5% |
| COc1ccc(/C=N/Nc2cc(C)nc3ccc(OC)cc23)c(OC)c1 | -50.1% |
| COc1ccc(CNCC(O)(c2ccc(Cl)cc2)c2ccc(Cl)cc2)cc1 | -12% |
| CCN(CC)S(=O)(=O)c1ccc2[nH]cc(C(=O)NC3CC3)c(=O)c2c1 | 11.3% |
| C=CCOc1ccccc1CNCCc1ccc(S(N)(=O)=O)cc1.Cl | -37.2% |
| CN(C)S(=O)(=O)N(CC(=O)NCCSCc1ccc(Cl)cc1)c1ccccc1 | -31.6% |
| COC(=O)C1C2c3ccccc3OC1(C)N=c1s/c(=C/c3cnn(C)c3C)c(=O)n12 (centres unmarked) | -3.36% |
| CS(=O)(=O)c1nc(-c2ccc(Br)cc2)cc(-c2ccccc2)c1C#N | 20.9% |
| OCCCNC(=S)Nc1ccc(Br)cc1Cl | 19.1% |
| CCCN(C(=O)CN1C(=O)NC2(CCCCCC2)C1=O)C1CCS(=O)(=O)C1 (centres unmarked) | 50.9% |

| SMILES | hERG current change (%, negative = inhibition) at 10uM |
| --- | --- |
| O=C(CN1C(=O)c2ccccc2S1(=O)=O)NCc1ccco1 | 14.1% |
| CNC(=O)/C(C#N)=C/c1ccc(-c2ccccc2[N+](=O)[O-])o1 | 8.72% |
| CCCOC(=O)c1ccc(Nc2cc(C)nc3ncnn23)cc1 | -35.4% |
| O=C(NCc1cccc(Cl)c1)c1ccc2nc(N3CCOCC3)sc2c1 | -44.7% |
| Cc1ccccc1NC(=O)CSc1nc2ccccc2c2nc(CCn3cncc3C)nn12 | -55.6% |
| Cc1ccc(S(=O)(=O)CCC(=O)NC2CCCCC2)cc1 | -0.557% |
| O=C(CSc1nnc(-c2ccc(Cl)cc2)n1Cc1ccco1)c1cccs1 | -16.4% |
| CN(C(=O)c1ccccc1Cl)C1CCCCC1 | -1.55% |
| Cn1c(-c2ccccc2)cnc1N | 7.85% |
| CN1CCc2c(sc(/N=C/c3cc(C(C)(C)C)ccc3O)c2C#N)C1 | 5.6% |
| COc1ccc(NC(=O)CN2C(=O)S/C(=C/c3cccn3-c3ccc(C(=O)O)cc3)C2=O)cc1 | 17% |
| CCc1c(C(=O)Nc2ccc(OC)cc2)[nH]c(C)c1C(C)=O | -12.8% |
| COC1CCCN(C(=O)c2cccc(OC3CCN(S(C)(=O)=O)CC3)c2)C1 (centres unmarked) | 15.1% |
| CC[C@H](CO)Nc1nc(Nc2cccc(Cl)c2)c2ncn(C(C)C)c2n1 | -10.7% |
| COc1ccccc1N(CC(O)CN1CCOCC1)S(=O)(=O)c1ccccc1 (centres unmarked) | 12.7% |
| COc1ccccc1/C=C1\SC(=O)N(CCC(=O)NCCCn2ccnc2)C1=O | -24.5% |
| COc1ccc(C(=O)NCCn2cc(SCC(=O)NCc3ccco3)c3ccccc32)cc1 | -4.63% |
| CCOc1ccc(C(=O)Nc2ccc(S(=O)(=O)N3CCN(C)CC3)cc2)cc1 | 1.39% |
| Cc1cc(C)cc(OCC(=O)N2CCCCCC2)c1 | -2.23% |
| C#CCNC(=O)C1=C[C@@H](c2ccc(C#C)cc2)[C@H](CCCO)[C@@H](OCC)O1 | -21.4% |
| COc1cc(OC)c(C2=NOC(C(=O)NCCc3ccccc3)C2)cc1Cl (centres unmarked) | -13.1% |
| Cc1ccc(C2C3=C(CC(C)(C)CC3=O)N(CCN3CCOCC3)C3=C2C(=O)CC(C)(C)C3)cc1 | -20% |
